Reference: PubChem BioAssay AID488969 (Vanderbilt High Throughput Screening Facility, 2010)
In all, about 110,000 compounds were measured (“z-score”: median about -0.1, highest 2% from about 2 on). The list shows a part of the results. Calls of active or inactive are those of the source.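 Rule for the calls: active = z-score in the third read window above 3 or below -3; inactive = the rest.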

target: Metabotropic glutamate receptor 8 (Rattus norvegicus) (UniProt P70579); experiment: mGluR8 Gi/Go-coupled signaling modulation – cell-based, rat, thallium flux, HTS, primary screen (AID 488969); conditions: HEK293 rat mGluR8, GIRK (G protein-gated inwardly rectifying potassium channel) thallium flux, FluoZin2; at 10 µM; stronger effect = higher value; submaximal glutamate (EC20) added with thallium
UniProt P70579, sequence (P70579 whole entry, looked up): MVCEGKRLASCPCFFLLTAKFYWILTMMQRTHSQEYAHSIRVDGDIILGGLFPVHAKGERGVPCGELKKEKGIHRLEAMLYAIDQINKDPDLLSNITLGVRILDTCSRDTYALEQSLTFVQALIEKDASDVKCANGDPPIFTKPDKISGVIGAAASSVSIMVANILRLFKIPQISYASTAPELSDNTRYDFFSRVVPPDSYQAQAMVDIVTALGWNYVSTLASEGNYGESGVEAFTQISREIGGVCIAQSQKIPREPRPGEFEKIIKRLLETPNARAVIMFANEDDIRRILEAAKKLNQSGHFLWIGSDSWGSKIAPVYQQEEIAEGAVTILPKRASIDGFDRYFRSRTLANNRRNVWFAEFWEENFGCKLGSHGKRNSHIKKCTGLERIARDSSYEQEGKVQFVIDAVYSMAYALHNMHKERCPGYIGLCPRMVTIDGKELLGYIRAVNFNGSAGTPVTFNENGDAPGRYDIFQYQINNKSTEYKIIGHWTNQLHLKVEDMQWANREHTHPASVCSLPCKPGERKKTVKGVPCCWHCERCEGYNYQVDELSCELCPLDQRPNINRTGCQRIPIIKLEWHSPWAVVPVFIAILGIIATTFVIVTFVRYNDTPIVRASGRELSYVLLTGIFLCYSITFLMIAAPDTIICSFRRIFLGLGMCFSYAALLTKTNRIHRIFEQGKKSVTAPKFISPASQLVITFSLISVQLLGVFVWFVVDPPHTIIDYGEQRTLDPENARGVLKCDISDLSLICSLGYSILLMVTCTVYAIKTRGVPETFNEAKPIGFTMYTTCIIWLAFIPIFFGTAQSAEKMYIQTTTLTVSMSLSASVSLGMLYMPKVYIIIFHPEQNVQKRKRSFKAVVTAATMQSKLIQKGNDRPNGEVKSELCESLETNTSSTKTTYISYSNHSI

SMILES	z-score
O=C1C2CC=CCC2C(=O)N1c1ccc(Cc2ccncc2)cc1 (centres undefined)	-0.0342
COc1ccccc1Cn1c(=S)[nH]c2cc(C(=O)N3CCN(C)CC3)ccc2c1=O	1.08
CCN(CC)c1nc(C)c2c(c1C#N)CC(C)(C)OC2	-0.441
COC(=O)c1c(NS(=O)(=O)c2cccs2)sc2c1CCCC2	active: 6.32
COc1ccc(-c2[nH]ncc2/C=N\NS(=O)(=O)c2ccc(Cl)cc2)cc1	-0.334
COc1cc(OC)nc(NC(=O)CSc2nc3ccccc3o2)n1	-0.294
COc1ccccc1CNC(=O)COC(=O)/C=C/c1cccs1	0.174
CC(=O)NC(Cc1c[nH]c2ccccc12)C(=O)OCC(=O)Nc1cc(C)on1 (centres undefined)	-2.49
O=C(CSCc1cccc(Cl)c1)Nc1ccccc1-c1ccccc1	-0.137
Cc1ccc(NC2=CC(=O)C(=O)c3ccccc32)cc1	0.197
CCOc1ccc(C(=S)N2CCOCC2)cc1OCC	-0.0319
O=C(CSc1nnnn1-c1ccc2c(c1)OCCO2)OC1CCCCC1	-2.27
Cc1ccc2[nH]cc(CCCN3C(=O)c4ccccc4C3=O)c2c1	1.63
Cc1nnc(SCC(=O)N2CCN(S(=O)(=O)c3ccccc3)CC2)[nH]c1=O	-0.0349
Cc1cccc(NC(=O)CSc2nnc(-c3ccc(S(=O)(=O)N4CCCC4)cc3)o2)c1	-0.704
Cc1[nH]n2c(=O)cc(C(C)C)nc2c1-c1ccccc1	-0.963
CN(Cc1ccccc1)c1nc2c(c(=O)[nH]c(=O)n2C)n1CCCSc1ncccn1	0.398
CCCN(CCC)C(=O)c1c(NC(=O)CC)sc2c1CCCCC2	-0.257
O=C(N1CCN(c2ccc(F)cc2)CC1)C1(c2cccs2)CCOCC1	-0.652
COc1ccc(C2OCC3(CO2)SC(N)=NC3=O)cc1 (centres undefined)	-0.146
CS(=O)(=O)NCCCc1ccccc1	-0.0519
CCOC(=O)c1c(NC(=S)NCCc2ccccc2)sc2c1CC(C(C)C)OC2 (centres undefined)	active: 3.42

SMILES	z-score
CCOc1ccc(C2Nc3ccc4ccccc4c3-c3c2c(=O)oc2ccccc32)cc1 (centres undefined)	-0.29
CC(=O)Nc1ncc2c(n1)CC(c1ccco1)CC2=O (centres undefined)	0.634
COc1ccc(-c2ccnc(SCC(=O)c3ccc(Cl)cc3)n2)cc1	-0.334
COc1cccc(N(C(=O)c2ccco2)C(C(=O)NC2CCCC2)c2cccnc2)c1 (centres undefined)	0.962
Cc1nc(NC(=O)c2cc(-n3cnnc3)ccc2Cl)ccc1Br	-0.225
O=C(Nc1ccccc1N1CCN(C(=O)c2ccc(Cl)cc2)CC1)c1cc2ccccc2o1	-0.264
CCc1ccc2[nH]c(=O)c(CN(CCN(C)C)C(=O)Nc3ccccc3)cc2c1	-0.0486
Cc1cc(Cl)c(S(=O)(=O)Nc2ccccn2)cc1OCC(N)=O	0.282
Cn1c2c(c(=O)n(C)c1=O)C(c1ccc(O)cc1)Nc1ccccc1O2 (centres undefined)	-0.242
Cc1nc2c3ccccc3nc(SCC(=O)N3CC(C)CC(C)C3)n2n1 (centres undefined)	-0.279
CC1CC(C)CN(C(=S)Nc2ccc(OC(F)F)cc2)C1 (centres undefined)	-0.115
CC1=Nn2c(nnc2C2CCCCC2)SC1	-0.0727
Cc1sc2c(c1C)c(=O)nc1scc(C)n12	0.0939
COc1ccc(NS(=O)(=O)c2cc(NC(=O)c3cnc(C)cn3)ccc2N2CCCC2)cc1	0.145
CN1CCC(N(C)C(=S)Nc2ccc(SC(F)F)cc2)CC1	-0.0288
CC1CCN(S(=O)(=O)c2ccc(S(=O)(=O)NCC3COCCO3)cc2)CC1 (centres undefined)	-0.165
COc1cc(C2Nc3cccc4cccc(c34)N2)cc(OC)c1O	-0.213
Cn1c2c(c(=O)n(C)c1=O)C(c1ccccc1Cl)CC(=O)N2 (centres undefined)	-0.455
CC(C)(C)NC(=O)C(Cc1ccccc1)NS(=O)(=O)c1cccc2nsnc12 (centres undefined)	-0.0796
Cc1ccc(S(=O)(=O)NC(=O)COc2ccccc2C(N)=O)cc1	0.117
CCOC(=O)c1c(NC(=O)COC(=O)c2nc(Cl)ccc2Cl)sc2c1CCC2	-0.388
CCOC(=O)C1CCN(C(=O)CN(c2cccc(OC)c2)S(=O)(=O)c2ccccc2)CC1	-0.124

SMILES	z-score
Cc1ccc(/C=C/C(=O)c2c(C)nc3ccccn23)cc1	-0.499
O=C(CN1C(=O)CSc2ccccc21)NCCC1=CCCCC1	0.0736
O=C(C1=NN(c2ccccc2)C2C(=O)N(c3ccc(Cl)cc3)C(=O)C12)c1ccccc1 (centres undefined)	-0.0541
Nc1nc(NC(=O)/C=C/c2ccccc2)nn1-c1ccccc1	-0.153
Cc1ccc(-c2nc3cccnc3s2)cc1NC(=O)c1ccco1	0.542
O=C(Nc1ccc(N2CCOCC2)cc1)c1cccc(S(=O)(=O)N2CCC(Cc3ccccc3)CC2)c1	0.359
O=C(Nc1nnc(C2CC2)s1)c1ccc(S(=O)(=O)c2ccccc2)cc1	0.00782
c1ccc(C2(CNc3ccccn3)CCCC2)cc1	-0.181
Cc1ccc(NC(=O)NC(=O)COc2ccc(Cl)cc2Cl)c(C)c1	-0.554
COc1cc(C2C(C(=O)c3ccco3)=C(O)C(=O)N2Cc2cccnc2)cc(OC)c1OC (centres undefined)	0.799
CN1c2ccccc2Oc2c(c(=O)n(C)c(=O)n2C)C1c1cccc([N+](=O)[O-])c1 (centres undefined)	0.777
COc1cc(CNc2nc3ccccc3[nH]2)cc(OC)c1OC	-0.478
C#CCOc1ccc(Cl)cc1/C=N/O	-0.156
O=C(Nc1ccccc1-c1ccccc1)C1CCCCC1	-0.23
CCOC(=O)c1cc(-c2ccc3c(c2)OCCO3)nc2c1c(C)nn2CCC#N	-1.28
CCC(C)(C)n1c(=O)[nH]c2c(c1=O)CCC2	-0.0491
CC(C)(C)NC(=O)CN(C(=O)CS(=O)CC(=O)Nc1ccc(F)cc1)c1ccc(Cl)cc1 (centres undefined)	-0.24
Cc1ccc(-c2cc(C(F)F)n3ncc(C(=O)N4CCN5CCCC5C4)c3n2)cc1 (centres undefined)	-0.324
CC1CCCN(CC(=O)Nc2cccc([N+](=O)[O-])c2)C1 (centres undefined)	-0.561
COc1cccc(-c2nn(-c3ccccc3)cc2/C=C\C(=O)c2cccs2)c1	0.12
O=C(Nc1ccccc1)c1ccc(S(=O)(=O)NCc2ccco2)cc1	-0.18
CC(=O)c1cccc(NC(=O)NC(C)C2CCCO2)c1 (centres undefined)	-0.0986

SMILES	z-score
O=C(c1csc2ccccc12)N1CCN(c2ccc(Cl)c(Cl)c2)CC1	-0.383
CCc1ccc2[nH]c3nc(SCC(=O)NNC(=O)c4ccc(C(C)(C)C)cc4)nnc3c2c1	-0.0392
Cc1ccc(NC(=O)COc2nc(C)cs2)cc1	0.182
Cc1ccc(C(=O)Nc2ccc([N+](=O)[O-])cn2)o1	-0.447
COc1ccc(-c2[nH]ncc2/C=N\NC(=O)c2ccc(C(C)(C)C)cc2)cc1OC	-0.413
CCCCCC(=O)Nc1c(-c2ccc(OC)cc2)c(=O)c2ccccc2n1C	0.109
CCCNC(=O)COC(=O)c1ccccc1OCc1ccc(Cl)cc1	-0.833
Cc1nc(NC(=O)c2ccc(Cl)cc2)sc1-c1csc(Nc2cccc(F)c2)n1	-0.184
COc1ccc(C(=O)Nc2cc(C(=O)NCCc3ccccc3)ccc2Cl)cc1	-0.128
CCOC(=O)c1c(N)sc2c1CCSC2	-0.273
C/C(CCC12CC3CC(CC(C3)C1)C2)=N\NC(N)=S	-0.636
CCOC(=O)CSc1nnc(C)c(=O)[nH]1	-0.0243
Cc1nc2cc3nc(C(F)(F)F)[nH]c3cc2[nH]1	-0.218
CCn1c(CNc2ccc(F)cc2)nnc1SCC(=O)Nc1ccccc1OC	-1.06
O=C(COc1ccc(S(=O)(=O)N2CCCC2)cc1Cl)Nc1ccc2c(c1)OCO2	0.222
CC1=CN2C(=N)/C(=C/c3ccco3)C(=O)N=C2S1	-0.13
CCOC(=O)C1=C(C)NC(=O)NC1c1cccc(O)c1 (centres undefined)	-0.126
CCSC1=NCN(CCCC(=O)O)CN1	0.999
CCOC(=O)C1=C(c2ccc(OC)cc2)C(=O)c2ccccc2C1=O	-0.347
COc1ccc(S(=O)(=O)n2nc(OC(=O)c3c(-c4ccccc4Cl)noc3C)cc2N)cc1	-0.976
NC(=O)c1cc2nc(-c3ccco3)cc(C(F)(F)F)n2n1	-0.0931
CC1(C)C(c2ccccc2)=NC(c2ccccc2)N1O (centres undefined)	-0.299

SMILES	z-score
COc1ccc(CCNC(=O)CC2COc3ccccc3O2)cc1OC (centres undefined)	-0.214
COc1ccc(-c2csc3nc(-c4cccnc4)nc(Cl)c23)cc1OC	-0.77
CC(=O)OC1CC(n2ccc(NC(=O)c3ccccc3)nc2=O)OC1CO (centres undefined)	0.698
Cc1ccc(C(=O)Nc2cc3c(cc2Cl)OCCCO3)cc1	0.00202
O=C(NNC(=O)c1ccc2ccccc2c1O)c1ccccc1Cl	0.142
O=C(Nc1ccccn1)C1COc2ccccc2O1 (centres undefined)	-0.278
CCOC(=O)CSc1nc(N2CCOCC2)c2c(c1C#N)CC(C)(C)N(C)C2	-0.514
Cc1ccc(-n2c(=O)c3sccc3n(Cc3cc(=O)n4ccccc4n3)c2=O)cc1	-0.518
Cc1cc(C)n(Cc2ccc(NC(=O)c3c([N+](=O)[O-])c(C)nn3C)cc2)n1	-0.127
O=C(COC(=O)Cn1nnc2ccccc21)Nc1ccccc1Br	-0.647
CCOC(=O)C(C)Sc1nnc(Cc2cc(=O)[nH]c(=O)[nH]2)n1-c1ccc(Cl)cc1 (centres undefined)	0.496
COCCNc1nc2sc3c(c2c(=O)n1Cc1ccco1)CCCCC3	1.48
CCOC(=O)C(Cc1ccccc1)(NC(C)=O)C(=O)OCC	-0.647
O=C(N/N=C/c1cc([N+](=O)[O-])cc([N+](=O)[O-])c1O)/C(=C\c1cccs1)NC(=O)c1ccccc1	-0.0731
COc1cccc(NC(=S)NNC(=O)c2c([N+](=O)[O-])c(C)nn2C)c1	0.0976
O=C(c1ccccc1)C1CN(c2ccccc2)CC1c1ccc(Cl)cc1 (centres undefined)	-0.113
CC1CN(c2nc3ccccn3c(=O)c2/C=C(\C#N)S(=O)(=O)c2ccccc2)CC(C)O1 (centres undefined)	-0.181
COc1cccc(NC(=S)NCc2ccncc2)c1	-0.0527
O=[N+]([O-])c1ccc(-c2cc(-c3ccncc3)nc3ccc4ccccc4c23)cc1	0.867
Cc1ccc(CNC(=O)COC(=O)c2ccc(S(=O)(=O)N3CCCC3)cc2)cc1	-0.0232
CCC(C)c1ccc(O)c(NC(=O)c2cncc(Br)c2)c1 (centres undefined)	-0.67
